Reference: PubChem BioAssay AID686979 (National Center for Advancing Translational Sciences (NCATS), 2013)
In all, about 420,000 compounds went through this assay and about 50,000 (12%) were called active. The inconclusive results got no clear call from the source; some entries with a clear call stand among them for comparison. The call rests on the fitted dose curve; in most records, active means well fitted inhibition curve with a large enough effect; inconclusive means small, poorly fitted or top-dose-only effect; inactive means flat fitted curve, though single readings scatter. Potencies of inconclusive entries are left out as doubtful fits.

experiment: qHTS for Inhibitors of human tyrosyl-DNA phosphodiesterase 1 (TDP1): qHTS in cells in presence of CPT; settings: chicken DT40 Tdp1-/-;hTDP1 cells + 20 nM CPT, ATP luminescence, 48 h; activity change, negative = growth inhibition: at 46.2 µM (top of the series) unless noted; further: nearly all actives have a fitted effect of over 55% in size
Method in brief: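 Chicken DT40 Tdp1-/- cells stably complemented with human TDP1 were seeded at 400 cells/well in medium containing 20 nM camptothecin, exposed to pin-transferred compounds, and grown at 37 °C for at least 48 hr. Viability was read as ATP luminescence.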
On the % scale 0 is the no-effect control and ±100 the full control effect; potency means the concentration at half of the fitted maximal effect; tags describe the fitted curve by direction and shape.

SMILES	activity change, negative = growth inhibition	Potency
CCOc1ccc(-c2nnc3n2N=C(c2ccc(OC)cc2)CS3)cc1	inactive: -24.6%	
COc1ccc(-c2cnnc(N/N=C/c3ccc(O)cc3)n2)cc1		inconclusive [inhibitor, partial curve]
O=C(Nc1nnc(-c2ccccc2SCc2ccccc2)s1)Nc1ccccc1F		inconclusive [inhibitor, partial curve]
CCOC(=O)C(NC(=O)CC(C)C)(Nc1sc(C)c(CC)c1C#N)C(F)(F)F (stereo unspecified)		inconclusive [inhibitor, single point]
Cc1ccc(C)c(N2CCN(C(=O)CCc3nc(-c4ccccc4C)no3)CC2)c1		inconclusive [inhibitor, single point]
CCc1cccc(NC(=O)c2ccc(Cn3nc(C)cc3C)o2)c1		inconclusive [inhibitor, single point]
COc1ccc(CCCNC(=O)C2(C)Cc3c(-c4ccc(NC(C)=O)cc4)ccnc3O2)cc1 (stereo unspecified)		active: 23.1 µM
Clc1cccc(Nc2ncnc3ccc(Br)cc23)c1		active: 25.9 µM
CCOc1ccc(NC(=O)CN(C)C(=O)CC(NC(=O)c2ccccc2)c2ccccc2)cc1OCC (stereo unspecified)	inactive: -0.535%	
Cc1cc(C)c(-c2csc(NC(=O)c3cc([N+](=O)[O-])ccc3N3CCOCC3)n2)c(C)c1		inconclusive [inhibitor, single point]
CC(C)[C@H]1COCCS(=O)(=O)N1Cc1ccccc1-c1cccc(Cl)c1		inconclusive [inhibitor, single point]
COc1ccc(Cl)cc1NC(=O)C1CCN(C(=O)Nc2ccccc2)CC1		inconclusive [inhibitor, single point]
O=C(CSc1nnc(CNC(=O)c2ccccc2)n1-c1cccc(Cl)c1)Nc1ccccc1F		inconclusive [inhibitor, single point]
O=C(O)CCNc1ccc(NCCC(=O)O)c2c1C(=O)c1ccccc1C2=O		inconclusive [inhibitor, partial curve]
O=C(Nc1ccc(F)cc1)c1cccn1-c1nnc(N2CCCCC2)s1	inconclusive: -30.1% [inhibitor]	
Cc1cc(NC(=O)COC(=O)c2ccc(S(=O)(=O)N3CCCC3)cc2)no1	inactive: 10.4%	
COc1cccc(CN2CCN(C(c3ccccc3)c3ccccc3)CC2)c1O		inconclusive [inhibitor, single point]
O=C(Nc1cccc(-n2cnnn2)c1)c1cnccc1Cl	inactive: 23.5%	
Cc1cc(C)c(S(=O)(=O)c2ccccc2)c(OC(=O)c2c(Cl)cc(Cl)cc2Cl)n1		inconclusive [inhibitor, single point]
CCc1ccc(NC(=O)[C@H](Cc2c[nH]c3ccccc23)NC(=O)[C@@H]2Cc3ccccc3CN2)cc1		active: 18.4 µM
COc1ccccc1N1CCN(C(=O)CCS(=O)(=O)c2cc(Br)cc3c2N(C(=O)C2CC2)CC3)CC1		active: 16.4 µM
COc1cccc(CN2CC(C(=O)NCCN3CCOC3=O)CCC2=O)c1 (stereo unspecified)	inactive: -3.23%	
Cc1ccc(-n2ncc3c(=O)n(CC(=O)N4CCCc5ccccc54)cnc32)cc1C		inconclusive [inhibitor, single point]
O=C(NCCCn1ccnc1)C1CCCN(S(=O)(=O)c2cc(Cl)ccc2Cl)C1 (stereo unspecified)	inactive: -12.4%	

SMILES	activity change, negative = growth inhibition	Potency
C[C@H](NC(=O)c1nc[nH]c1C(=O)OCc1ccccc1)c1ccccc1		inconclusive [inhibitor, single point]
CN(CC1COc2ccccc2O1)C(=O)c1ccc(Cl)c(S(=O)(=O)N2CCCCCC2)c1 (stereo unspecified)		active: 16.4 µM
c1ccc2oc(-c3[nH]ncc3CN3CCSCC3)cc2c1		inconclusive [inhibitor, single point]
CCNC(=O)C1CCCN(Cc2ccc(OCc3ccccc3)cc2)CC1 (stereo unspecified)		active: 18.4 µM
O=C1c2ccccc2C(c2nnnn2Cc2ccccc2)N1CCc1c[nH]c2ccccc12 (stereo unspecified)		inconclusive [inhibitor, single point]
CC(=NCCc1c(C)[nH]c2ccc(OCc3ccccc3)cc12)C1=C(O)CC(c2ccccc2)CC1=O (stereo unspecified)		inconclusive [inhibitor, single point]
CC(C)CN(C)C(=O)CC1C(=O)NCCN1C (stereo unspecified)	inactive: -13.2%	
OCCSc1ccc2nnc(-c3ccccc3)n2n1		inconclusive [inhibitor, partial curve]
COc1ccc2cc(CN(CC3CCCO3)S(=O)(=O)c3ccccc3)c(=O)[nH]c2c1 (stereo unspecified)		inconclusive [inhibitor, single point]
O=C1/C(=C\c2cccnc2)SC(=S)N1C1CCS(=O)(=O)C1 (stereo unspecified)		active: 3.66 µM
CC1=C(C)CC2C(C1)C(=O)c1ccc(Br)cc1S2(=O)=O (stereo unspecified)	inactive: -2.84%	
CN=CC1=C(O)CC(C)(C)CC1=O	inactive: -6.79%	
O=C(Nc1cc(NC(=O)c2ccccc2Cl)ccc1Cl)c1ccccc1		inconclusive [inhibitor, single point]
COc1cccc(C(=O)Oc2ccc(/C=N/Nc3ccc(C(=O)O)cc3)cc2OC)c1		inconclusive [inhibitor, partial curve, poor fit]
CCOc1ccccc1CNC(=O)c1ccc2nc(Cc3ccc(OC)cc3)oc2c1		inconclusive [inhibitor, single point]
O=C(NCc1cccc(F)c1)C1CCN(C(=O)c2sccc2-n2cccc2)CC1		inconclusive [inhibitor, single point]
CCCNC(=O)C1(C)CCCN(C(=O)c2ccccc2OC(F)(F)F)C1 (stereo unspecified)	inactive: 11.1%	
Cc1c(C(=O)NCc2cccnc2)oc2ccc(S(=O)(=O)N3CCC4(CC3)OCCO4)cc12		inconclusive [inhibitor, single point]
CN(C)CCCNC(=O)C[C@H]1C[C@H](C(=O)N2CCOCC2)[C@@]2(C)c3[nH]c4cc(CCC(=O)N(C)C)ccc4c3CCN2C1=O		inconclusive [inhibitor, single point]
CCOC(=O)C(=NC(C)C)NNc1cc(Cl)ccc1Cl		inconclusive [inhibitor, single point]
Cc1ccc(S(=O)(=O)CCC(=O)OCc2nnc(-c3ccccc3Br)o2)cc1	inactive: 6.48%	
Cc1cc(NC(=O)Cn2c(=O)n(Cc3ccccc3)c(=O)c3ccccc32)no1	inactive: -0.79%	
CCOc1ccccc1NC(=O)N1CCCC(c2nc3c(nnn3Cc3ccc(C)cc3)c(=O)[nH]2)C1 (stereo unspecified)		active: 29.1 µM
CCc1ccc(NC(=O)CSc2cn(CC(=O)N3CCCC3)c3ccccc23)cc1		active: 18.4 µM

SMILES	activity change, negative = growth inhibition	Potency
CS(=O)(=O)c1ccc(C(=O)Nc2ccc(-c3nc4ccccc4[nH]3)cc2)cc1		inconclusive [inhibitor, partial curve]
O=C(NCC(O)CN1CCOCC1)c1ccc([N+](=O)[O-])cc1 (stereo unspecified)	inactive: 2.39%	
COc1cc(SC)ccc1C(=O)NNC(=O)C1COc2ccccc2O1 (stereo unspecified)	inactive: 4.8%	
CCC(C)[C@H](NC(=O)N1CCCCC1)C(=O)OC (stereo partly specified)	inactive: 1.46%	
CCOC(=O)N1CCN(C(=O)c2ccc(S(=O)(=O)Nc3cccc(C(F)(F)F)c3)cc2)CC1		active: 16.4 µM
COc1ccccc1-c1ccc2ncnc(NC3CC3)c2c1		inconclusive [inhibitor, single point]
COc1ccccc1CNc1nc(=S)[nH]c2cc(OC)c(OC)cc12		inconclusive [inhibitor, single point]
CON(C)S(=O)(=O)NC(=O)C1=C(N2CCCC2)COC1=O	inactive: 1.28%	
COc1ccc(N2CCN(C(=O)CCNS(=O)(=O)c3ccc4c(c3)CCN4C(=O)C3CC3)CC2)cc1		active: 13 µM
O=C(CSc1ccc(-c2ccccn2)nn1)N1CCCc2ccccc21		inconclusive [inhibitor, single point]
COc1ccc(C(=O)NCc2nnc(SCC(=O)Nc3ccccc3OC)n2C)cc1	inactive: -12.9%	
COc1ccc(NC(=O)N2CC3(CCN(C(=O)c4c(C)noc4C)CC3)C2)cc1	inactive: 18.8%	
CCCS(=O)(=O)N1CCN(CC2CC=CCC2)CC1 (stereo unspecified)	inactive: -12.7%	
O=c1c2sc3ccccc3c2n(Cc2cccc(C(F)(F)F)c2)c(=O)n1Cc1ccco1		inconclusive [inhibitor, partial curve]
COc1ccc(Cl)cc1NC(=O)COc1ccc(S(=O)(=O)N2CCOCC2)cc1C	inactive: -8.41%	
CCc1ccc(N/C(N)=N/c2nc(CSc3ncccn3)cc(=O)[nH]2)cc1		inconclusive [inhibitor, single point]
O=C(Cc1c(F)cccc1Cl)Nc1ccccn1		inconclusive [inhibitor, partial curve, poor fit]
N=C1/C(=C\c2ccc(OC(=O)c3ccc(F)cc3)cc2)C(=O)N=C2SC(N3CCOCC3)=NN12	inactive: -7.84%	
Cc1cccc(N(C(=O)c2snc(C(N)=O)c2N)C(C(=O)NCC2CCCO2)c2ccc3ncccc3c2)c1 (stereo unspecified)	inactive: -23.2%	
O=C(c1cccc(Oc2c(Cl)cccc2[N+](=O)[O-])c1)N1CCOCC1		inconclusive [inhibitor, partial curve]
COc1ccc(NC(=O)C2(C)Cc3c(-c4cccc(C(F)(F)F)c4)ccnc3O2)cc1OC (stereo unspecified)		active: 16.4 µM
Cc1ccccc1-c1nc(-n2ccnc2)c2ccccc2n1		inconclusive [inhibitor, single point]
COCCNc1nc(Oc2cccc(NC(C)=O)c2)c2sccc2n1		inconclusive [inhibitor, partial curve]
